Screen size: about 44,000 compounds; about 340 (0.77%) were called active. Roughly 5% stayed inconclusive and do not appear here. The call rests on the fitted dose curve; in most records, active means well fitted inhibition curve with a large enough effect; inconclusive means small, poorly fitted or top-dose-only effect; inactive means flat fitted curve, though single readings scatter. The list shows a part of the results.
Assay: Acumen qHTS Assay for Inhibitors of the mTORC1 Signaling Pathway in MEF (Tsc2-/-, p53-/-) Cells: Sytravon;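 further: plate controls were DMSO for no effect and rapamycin for full effect; nearly all actives have a fitted effect of over 50% in size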
Conditions: phospho-rpS6 immunofluorescence/PI, 24 h; series mostly up to 38.3 µM; activity change, negative = inhibition: at the top concentration
In short: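 Tsc2-/-, p53-/- MEFs (empty-vector stable line) in DMEM + 10% FBS were treated with compounds 24 h at 37 degree Celsius, fixed, and immunostained for phospho-rpS6 (Alexa-488) with propidium iodide counterstain. Laser-scanning cytometry gave % positive cells, normalized against 7.5 nM rapamycin and DMSO.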

Activity change, negative = inhibition, inactive:
CCOC(=O)C1CCCN(C(=O)c2cc3c(=O)n(C)c4ccccc4c3s2)C1 (stereo unspecified) -8.31%
CCOc1ccc(-c2c(C)nn3c(C)c(C(=O)NCC(C)c4ccccc4)cnc23)cc1OCC (stereo unspecified) -16.5%
COc1cc(-c2noc(-c3nnn(-c4ccc(Cl)cc4)c3C)n2)cc(OC)c1OC -0.796%
CCc1ccc(N2C(=O)CS(=O)(=O)C23C(=O)N(Cc2ccccc2)c2ccccc23)cc1 (stereo unspecified) 8.83%
Cc1ccc(-n2nc(CO)c(C(=O)NCCc3ccccc3)n2)cc1C -5.55%
O=C(Nc1ccccc1C(F)(F)F)c1noc2c1CCCCC2 3.6%
CCc1cccc(C)c1Nc1c(-c2ccc(N3CCOCC3)cc2)nc2ncccn12 -6.36%
CC(=O)c1ccc(NC(=O)C2CCCN(S(=O)(=O)c3cn(C)cn3)C2)cc1 (stereo unspecified) 5.32%
Cc1c2cnn(CC(=O)Nc3ccc(F)cc3F)c(=O)c2c(C)n1Cc1cccc(Cl)c1 -8.1%
CCOC(=O)c1cc2c(=O)n3ccccc3nc2n(Cc2ccco2)c1=NC(=O)c1ccccc1OC -13.8%
Cc1ccc(NC(=O)C2CCCN(c3nnc(C)c4c(C)n(-c5ccccc5)nc34)C2)cc1Cl (stereo unspecified) 1.25%
O=C(Cn1c(=O)n(-c2ccc(F)cc2)c(=O)c2sccc21)Nc1cccc(C(F)(F)F)c1 -1.73%
COc1ccc(-n2nc3c(c2NC(=O)C(=O)N2CCN(C)CC2)CSC3)cc1 -1.86%
COc1ccc(Cn2c(C(=O)O)c(CNCCc3ccccc3Cl)c3ccc(C)cc32)cc1 -11.9%
COc1cccc(CNC(=O)Cn2c(=O)oc3cc(S(=O)(=O)N4CCC(C)CC4)ccc32)c1 -16.4%
Cc1ccc(-n2nc3c(=O)n(C(C)C(=O)O)nc(C)c3c2C)cc1 (stereo unspecified) -3.1%
CCC(=O)N1CCc2cc(S(=O)(=O)CCC(=O)NCc3ccc(F)cc3)ccc21 -3.21%
CC(C)NC(=O)c1cc2c(Cl)nc3ccccc3c2s1 -0.0482%
Cc1ccc(CNC(=O)c2ccc3c(c2)N(Cc2cccc(Cl)c2)C(=O)CS3)cc1 0.798%
Cc1cc(O)c(C(=O)c2cnc3c(c2)COc2ccccc2-3)cc1Cl -2.63%
CCOc1ccc(NC(=O)Cn2cc(C(=O)c3ccc(C)c(C)c3)c(=O)c3cc(F)ccc32)cc1 -2.43%
Cc1ccc(Cl)cc1NC(=O)Cn1c(=O)n(CCC(=O)N2CCc3ccccc3C2)c(=O)c2ccccc21 0.391%
COc1cc(NC(=O)CSc2nc3nc(C)c(Cc4ccccc4)c(C)n3n2)cc(OC)c1 0.489%
CCN(c1ccc(C)cc1C)S(=O)(=O)c1nnc(NC(=O)CC(C)C)s1 1.2%
CCN(CC)c1nn2c(=O)c(C(=O)NCc3cccc(OC)c3OC)cnc2s1 -1.99%
COc1cccc(NC(=O)CSc2cc(C)[nH]c(=O)n2)c1 0.448%
